In all, about 33,000 sequences were measured (“E-score (-0.5 to 0.5)”: median about -0.016, highest 2% from about 0.32 on). Some of the results follow.
Biological target: T1, Stp1 (UniProt B3LFK1)
T1 sequence: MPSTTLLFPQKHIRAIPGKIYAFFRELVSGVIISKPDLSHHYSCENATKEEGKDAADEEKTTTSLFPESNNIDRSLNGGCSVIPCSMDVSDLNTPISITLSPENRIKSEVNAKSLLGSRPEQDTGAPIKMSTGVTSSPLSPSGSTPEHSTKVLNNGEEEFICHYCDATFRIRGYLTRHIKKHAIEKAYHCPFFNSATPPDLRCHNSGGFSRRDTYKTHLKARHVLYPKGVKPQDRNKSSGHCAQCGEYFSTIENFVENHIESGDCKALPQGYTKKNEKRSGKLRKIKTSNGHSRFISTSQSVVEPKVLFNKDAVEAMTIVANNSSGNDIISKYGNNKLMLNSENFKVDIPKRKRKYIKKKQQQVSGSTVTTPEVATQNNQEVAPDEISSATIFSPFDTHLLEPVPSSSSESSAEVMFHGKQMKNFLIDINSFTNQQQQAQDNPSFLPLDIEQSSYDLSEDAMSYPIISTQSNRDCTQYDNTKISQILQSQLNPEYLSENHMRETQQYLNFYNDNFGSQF
Assay: PBM E-score (8-mer binding enrichment) (E-score (-0.5 to 0.5)); higher = stronger / more preferred TF binding; most listed sequences are background and not binding sites
Conditions: protein concentration: 200 nM; construct: GST-full length
Procedure: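 Universal 'all 10-mer' protein binding microarrays (Agilent AMADID 015681) probed with GST-tagged S. cerevisiae TFs (full-length or DBD) made by in vitro transcription/translation (PURExpress), about 100-200 nM. Bound TF was detected with fluorescent anti-GST. Each ungapped 8-mer (which stands for itself and its reverse complement) is scored by the PBM enrichment score (E-score), a modified Wilcoxon-Mann-Whitney statistic from -0.5 to +0.5, computed with the Universal PBM Analysis Suite. Scale: above 0.35 generally sequence-specific binding.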

First: CTCAATTC
Second: CTCACGAG
The “PBM E-score” value of the first is higher: 0.0345 for the first, -0.111 for the second.

First: AGAGGTTC
Second: CGAGTTAC
The “PBM E-score” value of the first is lower: -0.0312 for the first, 0.11 for the second.

First: GCGAAACA
Second: ACCATTGC
The “PBM E-score” value of the first is higher: 0.122 for the first, -0.0584 for the second.

First: GGTGTTAA
Second: GCCGGTCA
The “PBM E-score” value of the first is higher: 0.0826 for the first, -0.102 for the second.

First: CGTTGTAA
Second: ACCCTGGC
The “PBM E-score” value of the first is higher: -0.0631 for the first, -0.233 for the second.

First: GTAAGATA
Second: CACATTGA
The “PBM E-score” value of the first is higher: 0.21 for the first, 0.134 for the second.

First: ATATGGTA
Second: AACGTAGT
The “PBM E-score” value of the first is higher: 0.0227 for the first, -0.00602 for the second.

Going from GCTAAGCA to GGACGAAC, the “PBM E-score” value rises from 0.0427 to 0.0901.

Compared with CCGAATAC, AAATAATG is higher in “PBM E-score” value: 0.173 for the first, 0.253 for the second.

Compared with CCAAGCAC, GCCCGAGA is lower in “PBM E-score” value: 0.0645 for the first, 0.0368 for the second.

Compared with CAACTTTA, GAAACGGC is higher in “PBM E-score” value: 0.0616 for the first, 0.462 for the second.

First: ACTACATC
Second: CTCGTCAC
The “PBM E-score” value of the first is lower: -0.0415 for the first, 0.0658 for the second.

First: ATATACAA
Second: GATCACAA
The “PBM E-score” value of the first is higher: 0.232 for the first, 0.0964 for the second.

Compared with TATCAAAA, CCGAGAGC is lower in “PBM E-score” value: 0.0528 for the first, -0.267 for the second.

First: CTAACCTC
Second: GAGGCCCC
The “PBM E-score” value of the first is lower: -0.236 for the first, -0.125 for the second.

Compared with AGGCCCAT, AAAGGAAC is higher in “PBM E-score” value: -0.277 for the first, 0.0797 for the second.

Going from GCGCCCAA to TCTATAGA, the “PBM E-score” value falls from 0.119 to -0.185.

Going from GCGAAACC to ACGGGTAA, the “PBM E-score” value falls from 0.132 to 0.0689.

Going from CAGCTTGG to GCATGGCA, the “PBM E-score” value rises from 0.026 to 0.375.

First: CACCGCAC
Second: AAAAGCAG
The “PBM E-score” value of the first is higher: 0.0298 for the first, -0.0815 for the second.

First: GGTGATAC
Second: TATCGTAA
The “PBM E-score” value of the first is lower: -0.158 for the first, 0.134 for the second.

First: ACCGCGTC
Second: AAAGGTTA
The “PBM E-score” value of the first is higher: 0.117 for the first, -0.132 for the second.

Compared with ACCGCCGC, ATTAGCAA is lower in “PBM E-score” value: 0.389 for the first, 0.116 for the second.

Compared with TATCTTAA, ATTATCAC is higher in “PBM E-score” value: 0.133 for the first, 0.153 for the second.

First: AATACGTA
Second: CCAGATGA
The “PBM E-score” value of the first is higher: 0.124 for the first, -0.0204 for the second.

First: TAGGTCCA
Second: ACGGGAGC
The “PBM E-score” value of the first is higher: 0.0253 for the first, 0.00476 for the second.

Compared with CACAGCAG, ATAAGGAC is higher in “PBM E-score” value: 0.0685 for the first, 0.114 for the second.

Going from CAACGGTA to ACACGTGC, the “PBM E-score” value rises from -0.266 to 0.197.

Going from CTGCGTAC to CTGGCACC, the “PBM E-score” value falls from 0.00614 to -0.0921.

Compared with CCCAAGCC, AATCGATT is higher in “PBM E-score” value: 0.0564 for the first, 0.0938 for the second.

Compared with CAGCCACA, GGGGGCGA is lower in “PBM E-score” value: 0.161 for the first, -0.303 for the second.

Going from CATGAACG to AGTCTCAC, the “PBM E-score” value falls from 0.0341 to 0.027.

First: GGCCTTTA
Second: GTGGCCAA
The “PBM E-score” value of the first is higher: -0.0181 for the first, -0.126 for the second.

First: AACCACAT
Second: GAAGTAGC
The “PBM E-score” value of the first is higher: 0.114 for the first, -0.145 for the second.

Compared with GATGGGGA, CGCTAGGA is higher in “PBM E-score” value: -0.217 for the first, -0.0128 for the second.

First: ACCTGCGT
Second: ATCAGTCC
The “PBM E-score” value of the first is higher: -0.0439 for the first, -0.294 for the second.

Compared with GGGTTGAA, CGCATACG is higher in “PBM E-score” value: -0.173 for the first, 0.127 for the second.

Going from CCTTAAGG to ACTTGATG, the “PBM E-score” value falls from 0.173 to 0.034.

First: ACAAAATC
Second: CGAGTAGA
The “PBM E-score” value of the first is higher: 0.0644 for the first, -0.0226 for the second.

Going from TAAAGGCA to ACAAAAGT, the “PBM E-score” value falls from 0.237 to 0.0775.

First: AAGGGACG
Second: GGGAATCA
The “PBM E-score” value of the first is higher: -0.071 for the first, -0.0809 for the second.

Going from CAAAGCCG to CCAGGTAA, the “PBM E-score” value falls from 0.316 to -0.00283.

Going from AACTAATA to CCGTGTCC, the “PBM E-score” value rises from 0.222 to 0.297.

— the supplement of paper PMC3334620
